Out of some 340,000 compounds screened, about 6,900 (2%) were called active. Cut-off read from the data, not from the text of the source: active = inhibition above about 30%; inactive = below that, where a call was filed. Only a part is listed here, and it is no random draw. The source gives no active or inactive call for entries shown without one.
Each molecule was assayed against D(2) dopamine receptor (Homo sapiens) (UniProt P14416) (assay: HTS Assay for Allosteric Antagonists of the Human D2 Dopamine Receptor: Primary Screen for Antagonists). Settings: HEK293 TREx D2 cells, calcium flux, dopamine EC80; at 10 µM; stronger effect = higher value.
How it was run: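 Dopamine at EC80 is the agonist stimulus; test compounds precede it by 180 s. Calcium flux read kinetically in a force-coupled, inducible HEK293 T-REx D2 cell line.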
Note: 0% is about no effect.

Chain of UniProt P14416 (P14416 whole entry, looked up): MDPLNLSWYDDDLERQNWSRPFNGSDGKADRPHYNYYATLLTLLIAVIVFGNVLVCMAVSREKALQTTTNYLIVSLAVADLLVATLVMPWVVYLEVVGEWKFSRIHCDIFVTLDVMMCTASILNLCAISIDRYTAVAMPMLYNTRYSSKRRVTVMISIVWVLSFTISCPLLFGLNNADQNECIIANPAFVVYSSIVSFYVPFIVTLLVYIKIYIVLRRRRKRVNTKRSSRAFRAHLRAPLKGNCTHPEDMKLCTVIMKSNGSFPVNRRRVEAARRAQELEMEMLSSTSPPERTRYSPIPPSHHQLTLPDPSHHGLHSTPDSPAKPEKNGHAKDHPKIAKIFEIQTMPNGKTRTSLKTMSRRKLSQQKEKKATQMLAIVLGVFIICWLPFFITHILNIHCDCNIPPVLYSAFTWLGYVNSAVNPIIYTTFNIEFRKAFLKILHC

| SMILES | inhibition |
| --- | --- |
| COC(=O)c1ccccc1NC(=O)Cc1noc2ccc(C)cc12 | 26.6% |
| CCc1ccc(NC(=O)CC2C(=O)N(c3ccccc3)C(=O)N2C(C)C)cc1 (centres undefined) | 9.82% |
| COc1ccc(Br)cc1CNC(=O)CN1CCSc2ccccc21 | 14.7% |
| O=C(Nc1ccc(Cl)c(Cl)c1)N1CCC(c2ccccc2)C1 (centres undefined) | -14% |
| COc1ccc(NC(=O)Cn2c(=O)n(Cc3nc(-c4ccccc4)no3)c(=O)c3cc4c(cc32)OCO4)cc1Cl | -0.25% |
| Cc1ccc(-n2c(=O)c3ccc(C(=O)NCc4ccco4)cc3n(Cc3cccc(Cl)c3)c2=O)cc1 | 8.29% |
| CC(C)c1cnc2c(c1SCc1cccc(C(F)(F)F)c1)c(=O)n(C)c(=O)n2C | 1.36% |
| O=C(Nc1ccc(F)cc1F)c1noc2c1CCc1ccccc1-2 | -1.89% |
| Cc1cccc(-n2c3nc(=O)n(C)c(=O)c-3cc3c(Cl)cccc32)c1C | 14.2% |
| CC(C)CCNC(=O)CSCc1cnn(-c2ccccc2)c1-n1cccc1 | 24.1% |
| CCc1nc(SCC(=O)Nc2ccc(NC(C)=O)cc2)n[nH]1 | -4.98% |
| CC(=O)c1ccc(NC(=O)CCn2nc(C)c(S(=O)(=O)N3CCC(C)CC3)c2C)cc1 | 9.42% |
| COc1ccccc1N1CCN(CC(=O)Nc2cccc(F)c2)CC1 | active: 31.3% |
| O=C(CCN1CCN(c2ccccc2)CC1)Nc1ccc(OCc2ccccc2)cc1 | active: 65% |
| Cn1cc(S(=O)(=O)c2ccccc2)c(=O)c2cc(F)c(N3CCCCC3)cc21 | -5.21% |
| Cc1noc2nc(C(=O)O)nc(N3CCCCC3)c12 | 7.93% |
| COc1ccc(OC)c(-c2noc(CSc3nnc(Cc4ccccc4)n3-c3cccc(C)c3)n2)c1 | -2.22% |
| COc1cccc(N2CC(NC(=O)COc3ccc4ccccc4c3)CC2=O)c1 (centres undefined) | -15.6% |
| CCc1nnc(SCC(=O)Nc2cc(Cl)c(OC)cc2OC)c2cc3oc(C)cc3n12 | -3.68% |
| COc1ccc(-c2noc(CN3CCN(c4ccccc4OC)CC3)n2)cc1OC | -5.25% |

| SMILES | inhibition |
| --- | --- |
| O=C(Cn1c(=S)[nH]c2ccccc2c1=O)N1CCN(c2ccccc2)CC1 | active: 30.9% |
| CC(=O)Nc1ccc(S(=O)(=O)NC2(C(F)(F)F)NC(=O)N(c3ccc(Cl)cc3)C2=O)cc1 (centres undefined) | -7.24% |
| COC(=O)c1c(C)sc(-c2c(-c3cccc(OC)c3)[nH]c3c2c(=O)[nH]c(=O)n3C)c1O | 2.32% |
| COc1ccc(C(=O)N2CCc3cc(OC)c(OC)cc3C2COc2ccccc2OC)cc1 (centres undefined) | 4.43% |
| COc1ccc(C)c2sc(N(Cc3cccnc3)C(=O)CCc3ccccc3)nc12 | 9.69% |
| CCCn1c(=O)c2sccc2n2c(CCCC(=O)Nc3ccc(C)c(F)c3)nnc12 | -13.4% |
| Cc1ccc(-c2ccc(=O)n(CC(=O)Nc3ccc(F)c(Cl)c3)n2)cc1C | 13.6% |
| CCOc1ccc(CCNc2nc3c(-c4ccc(C)cc4)nnn3c3ccccc23)cc1OCC | -1.96% |
| COc1cccc(NC(=O)CSC2=Nc3ccccc3C3=NC(CCC(=O)NCc4ccco4)C(=O)N23)c1 (centres undefined) | -4.38% |
| CCOc1ccccc1C(=O)Nc1ccc(S(=O)(=O)N2CCCCC2c2cccnc2)cc1 (centres undefined) | 25.7% |
| COc1ccccc1C(=O)Nc1nnc(S(=O)(=O)N2CCCCCC2)s1 | 7.76% |
| COc1ccc(-c2nc(CNS(=O)(=O)c3ccc(C)cc3)cs2)cc1 | -3.33% |
| Cc1ccc(-c2cc(C(=O)N(Cc3ccccc3)Cc3ccco3)no2)cc1F | 0.824% |
| Cc1cccc(NC(=O)CN(C)S(=O)(=O)c2ccc3c(c2)c(=O)n(C)c(=O)n3C)c1 | -2.59% |
| CC1CCCCN1CC(=O)N1CCCc2c1c(=O)oc1ccc(OCc3ccccc3)cc21 (centres undefined) | 0.584% |
| O=C(NCCS(=O)(=O)N1CCN(c2ccccc2)CC1)C1CC(=O)N(c2ccccc2)C1 (centres undefined) | -2.36% |
| COc1ccccc1C(=O)Nc1ccc(-c2nc3ccccc3s2)c(C)c1 | -4.92% |
| CC(C(=O)N1CCN(Cc2ccccc2)CC1)n1ncn2cccc2c1=O (centres undefined) | active: 48.5% |
| O=C(NCc1ccccc1Cl)c1ccc(NC(=O)N2CCCCc3ccccc32)cc1 | -21% |
| CCOc1ccc(NC(=O)CSC2=Nc3ccccc3C3=NC(CC(=O)NCc4ccc5c(c4)OCO5)C(=O)N23)cc1 (centres undefined) | 3.85% |

| SMILES | inhibition |
| --- | --- |
| Cc1ccc(S(=O)(=O)c2c(Nc3cccc(Cl)c3)sc(C(=O)c3ccc4c(c3)OCO4)c2N)cc1 | 15% |
| O=C(OCc1cc(=O)n2c3c(sc2n1)CCCC3)c1cccc(NC(=O)c2ccccc2F)c1 | -15.4% |
| COc1cc(C)ccc1OCCSc1nnc(-c2ccc(C)cc2)o1 | -15.6% |
| Cc1ccc(C(=O)c2oc3ccccc3c2NC(=O)Cc2coc3c(C)c(C)ccc23)cc1 | -21.7% |
| COC(=O)c1[nH]c2cccc(C)c2c1NC(=O)CN1CCN(c2ccccc2OC)CC1 | active: 54.4% |
| Cc1ccc(-c2nnc(Nc3ccc(O)cc3)c3ccccc23)cc1S(=O)(=O)NCc1nc2ccccc2[nH]1 | 9.26% |
| COc1cc(NC(=O)CSc2nc(C)c(C(=O)Nc3ccccc3)c(-c3ccc(OC)c(OC)c3)c2C#N)c(OC)cc1Cl | 1.48% |
| CC(C)CN(CCCNC(=O)CN1C(=O)COc2ccc(S(=O)(=O)N3CCCCCC3)cc21)CC(C)C | 7.16% |
| O=C1CC(=O)Nc2cc(S(=O)(=O)N3CCOc4ccccc43)ccc2N1 | -3.99% |
| Cc1ccc(Cl)cc1N1CCN(CCCNc2ncnc3onc(-c4ccc(F)cc4)c23)CC1 | 8.56% |
| COc1ccc(N2CC3=C(C2=O)C(c2ccc(Br)cc2)NC(=O)N3C)cc1 (centres undefined) | -18.7% |
| COc1ccc(N(C(=O)COc2c(C)cccc2C)S(=O)(=O)c2ccc(Cl)cc2)cc1 | -3.27% |
| Cc1cccc(N2CCN(S(=O)(=O)c3ccc4oc(=O)c5ncn(C)c5c4c3)CC2C)c1 (centres undefined) | 2.03% |
| COC(=O)c1ccccc1NC(=O)c1cc2nc(-c3ccccc3)cc(-c3ccccc3)n2n1 | 2.28% |
| Fc1ccccc1N1CCN(CCCc2ccccc2)CC1 | active: 74% |
| Cc1ccccc1C(=O)NCC(c1cccnc1)N1CCc2ccccc21 (centres undefined) | -18.3% |
| CCOC(=O)c1c(C)sc(-c2c(-c3ccc4c(c3)OCCO4)[nH]c3c2c(=O)[nH]c(=O)n3C)c1O | -4.81% |
| COc1ccc(NC(=O)C2(c3cccs3)CCOCC2)cc1Cl | -15.5% |
| COC(=O)c1ccc(CN2CCC(CO)(Cc3cccc(OC)c3)CC2)cc1 | active: 37% |
